In article PMC12136788:
Some of the results follow.

T1: UNK ZnF1-3 (human, UniProt Q9C0B0 31-174)
T1 sequence: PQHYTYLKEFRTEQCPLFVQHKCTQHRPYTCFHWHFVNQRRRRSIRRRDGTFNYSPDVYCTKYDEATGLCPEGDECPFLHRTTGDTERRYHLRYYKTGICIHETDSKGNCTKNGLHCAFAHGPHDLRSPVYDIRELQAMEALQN

B1: chr17:64801638:64801639:+_ENSG00000154229_ENST00000413366|hu_mus|hu_hu_hu_mus_False|38_108 (ssRNA)
RNA: GGGAGUUCUACAGUCCGACGAUCUAUAAAUACAUAUACAUAUGUACACAUAUAUAGUAAAACCCUAGUUAAACGUGUAAAGUAGCCAUUCAUUUUUGAAAUUUUAUCUACAUUAAAAAAUUAAUAUAUCUGAUAGAGUGCCAGCAACAGAGGAUUGAGCAUCA
B2: 3366418_3366538_1347_CDS_ENSMUSG00000020668_ENSMUST00000020999|mouse|control|control (ssRNA)
RNA: GGGAGUUCUACAGUCCGACGAUCCUUGGUGACAAAGGAAGAGAGGUCCUUGAUGUAGACCCCUGUUUCAGGAUUCUCCUUCAGCUCUAGCCUCUUGCCUGGCUCCUUGGAUAGCAGGUCUCGGAUCUCCUCCUGGUAGAUCUCCAACAGAGGAUUGAGCAUCA
B3: chr7:99593754:99593755:+_ENSMUSG00000052572_ENSMUST00000098308|mus_hu|FALSE|FALSE (ssRNA)
RNA: GGGAGUUCUACAGUCCGACGAUCCUUUAGUGCCUUCUUUCAGUUUAUAAAUGGCAAAAUAGGCAAUCAACAAUCAUAAAGCUAAUCCCAGGUGGAAUCCCCUCCUGUCAGUGAGGUUAGUCCUCCAUACACUUGCAAAUUUUACAACAGAGGAUUGAGCAUCA
B4: chr2:135163197:135163198:+_ENSMUSG00000051177_ENSMUST00000110116|mus_mus|motif|central (ssRNA)
RNA: GGGAGUUCUACAGUCCGACGAUCGAAGAGUUGAGGCAUGUAGUUGGAUGAAUCCACACGUGUUCCCUUGGGAUAUAUCCUGCGGAGUUGCAUCUUGUUGUAUUCUACAAAUUCCACCGGAGACUUUGUAAGUUGUUCAAGUCCCAACAGAGGAUUGAGCAUCA
B5: chr2:47389785:47389786:-_ENSG00000143933_ENST00000272298|hu_mus|FALSE|FALSE (ssRNA)
RNA: GGGAGUUCUACAGUCCGACGAUCCUGUCCCCAGCUCCUUUGUUGUUAUUGUCCCAUCCCCGUCCUUGUCAAAUAGUGAGAAAGCUUCUUUGAACUCUGCAAUCUGCUCUUCAGUCAGUUGGUCAGCCAUGCUGCAAGGGCUACCAACAGAGGAUUGAGCAUCA
B6: chr4:124478334:124478335:+_ENSMUSG00000028894_ENSMUST00000094782|mus_mus|FALSE|FALSE (ssRNA)
RNA: GGGAGUUCUACAGUCCGACGAUCGGCUGAAUAAGGCAAAGUACAGUUACUUAAAACUUUUAAAUAAAAAUGAAUAGGGAGCUAUUUGUGUUAAAUAACUAGAGUUGAAUGUGGAACGUCAGUUCUACUAUGGUGGAUUGCCCCCAACAGAGGAUUGAGCAUCA
B7: chr1:23381596:23381597:+_ENSG00000004487_ENST00000356634|hu_hu|motif|central (ssRNA)
RNA: GGGAGUUCUACAGUCCGACGAUCAGUUGGUAGGGGUUUUAUCCUCUUAUAGAUGCCGAAGUUGAUAAGACCAUGACGCUCGGAAUAACUGUGAACUCGGUGGACAAGCACAGUAUCACUGUUAUAAGGUGCUUCUAAUUGUUGCAACAGAGGAUUGAGCAUCA
B8: chr2:109737439:109737440:+_ENSMUSG00000027162_ENSMUST00000028583|mus_mus|motif|central (ssRNA)
RNA: GGGAGUUCUACAGUCCGACGAUCCAUUUUCUCAAAGCGGGACUCCAUUUCUUCCAAGACUUUUGGUGUGUACCGUACGACGGAUUUAACCUUCCCUUGGGCUGCUUUCAGUAGCUCUACCGCUUUCUCAUGGUGCUCCCCUUCCAACAGAGGAUUGAGCAUCA
B9: chr2:192256868:192256869:+_ENSG00000128641_ENST00000304164|hu_hu|motif|central (ssRNA)
RNA: GGGAGUUCUACAGUCCGACGAUCUGGGUUUCGGAUGAAUAUCUUUGAUCUACCAAAGGAGUAUUCUUCCACGGGAAUUUCGGAUUCAUUAAAUAGGACCUCCACACCAGACCUGGCUGGUCCUUUCCAAUGAGGCCAUGUUUGCAACAGAGGAUUGAGCAUCA
B10: 32336150_32338001_3424_CDS_ENSMUSG00000024002_ENSMUST00000121285|mouse|control|control (ssRNA)
RNA: GGGAGUUCUACAGUCCGACGAUCGCUCUGGAACUGUGGCAUCUGAGGGGAAUGUAUCAUAAGCGGAGAGGGAGCCUCACGAAGAUGACCAGCUGAGUAGGGGUCUGACUUGUGGUGCCGGGGGGAAGGGUGAUGCUGGAUGACCAACAGAGGAUUGAGCAUCA
B11: chr16:94664741:94664742:+_ENSMUSG00000040785_ENSMUST00000117648|mus_hu|mus_mus_mus_hu_False|1_68 (ssRNA)
RNA: GGGAGUUCUACAGUCCGACGAUCUGGUACUGAUCUUGGUAGCUGAUAUUCAGGAGAAAGGCUGGCCAAAGGUGUGUAUAUGCUGGUGUACUGGGGCAAACCUGGUAACACGUUUAUGUAUGCUGGCGGUGUCUGGGUGCCAAACAACAGAGGAUUGAGCAUCA
B12: chr21:38862523:38862524:+_ENSG00000157540_ENST00000338785|hu_hu|FALSE|FALSE (ssRNA)
RNA: GGGAGUUCUACAGUCCGACGAUCUCGGAAAUUGGUGUUUCUCAGCAAGUCAUAGAGGUUGUAGGACAGCAUUUCAAAAACUAAACAGAGAUGGUUUCGAAACAUAAAGUGGCGUUUCAAAUGCACUAUGUAGUAUUUCAUUUCCAACAGAGGAUUGAGCAUCA
B13: 59343180_59345790_473_CDS_ENSG00000215114_ENST00000399598|human|control|control (ssRNA)
RNA: GGGAGUUCUACAGUCCGACGAUCAUUUUCUCCAUAGAUAUAUUCAGACCGCUUACAAAAAGAACUACCCAAUCUGUAUCCUCCACCUGUAAAUGACUUAGAUUUAUCAUCACCUGAAGCUCUUGUGGCUUCAUUCAGAGGGACCAACAGAGGAUUGAGCAUCA
B14: chr1:163117127:163117128:-_ENSG00000143248_ENST00000313961|hu_mus|hu_hu_hu_mus_False|78_88 (ssRNA)
RNA: GGGAGUUCUACAGUCCGACGAUCUGCUACAAAGGAUGUAACUCAACACUCACAGGAUGAUUUCAUAGCCUGACCAGAUGACUACUUGAUUAGCUCCUUAUAAAAUUCAGAGCGCACAAAGCGGGGCAGAGAAUCCUUCUCCAUCAACAGAGGAUUGAGCAUCA
B15: chr7:141438946:141438947:+_ENSG00000106028_ENST00000265304|hu_mus|hu_hu_hu_mus_True|28_38 (ssRNA)
RNA: GGGAGUUCUACAGUCCGACGAUCGACGAAAUACCUGUAACACAGGUCUUCGAAACAUGGCUUCUGUUUUUCUUACAACCUAAUCUUUAGGCUUUUCCUGACGAUCUAACCCGAGCAAGAAAAAUGAUAAAUCAAGAAACUACACAACAGAGGAUUGAGCAUCA
B16: chr7:141438946:141438947:+_ENSG00000106028_ENST00000265304|hu_mus|hu_hu_hu_mus_True|88_108 (ssRNA)
RNA: GGGAGUUCUACAGUCCGACGAUCGACUACCUGUAAUUAACACAGGUGAAACAUGGCUGGCUUCUGUUUUUCUUACAACCUAAUCUUUAGGCUUUUCCUAAAGGAAAGAAAGAAAAGAGAAAAAUGAUAAAUCAAGAAACUACACAACAGAGGAUUGAGCAUCA
B17: chr9:64576133:64576134:-_ENSMUSG00000004771_ENSMUST00000172298|mus_hu|FALSE|FALSE (ssRNA)
RNA: GGGAGUUCUACAGUCCGACGAUCUGUCCCAUAUCUGUGCCUUUAUUGUUUUUCCAUCAACCUGGAUGCUUCUUGUUGCAAACUCUACUCCAAUGGUGCUCUUGCUUUCCAGAUUAAACUCAUUUCGAGUAAAUCGAGACAGGACAACAGAGGAUUGAGCAUCA
B18: 90661390_90661510_1077_3pUTR_ENSG00000112182_ENST00000537989|human|control|control (ssRNA)
RNA: GGGAGUUCUACAGUCCGACGAUCUUCCGGCACACAAACAGGCCAUCCUCACUGUUCAGGAGCUGGGUCUGCAGGAAGCUGAAGCAGGAGUCCUCCAGGUUGUGCAUGCGCAGGAACUCAGCACAGCGGAUGACCUCGCGGAUGCAACAGAGGAUUGAGCAUCA
B19: chr3:179287964:179287965:+_ENSG00000136518_ENST00000429709|hu_hu|hu_hu_hu_mus_True|1_68 (ssRNA)
RNA: GGGAGUUCUACAGUCCGACGAUCCUUGAGUGGUGAGAUGGCCUCCAUGUUCUCCCUGGGCACGCGGAGAGCAUUAGUGUCUAUGUAGUAGGUGGGCCCGCCCUGCUUGCCUUUGUCACCAUCAAUCUCCAUCAUUGUGCUUCCCAACAGAGGAUUGAGCAUCA
B20: chr17:65740002:65740003:+_ENSG00000130935_ENST00000581375|hu_hu|hu_hu_hu_mus_False|78_98 (ssRNA)
RNA: GGGAGUUCUACAGUCCGACGAUCAACAAAUCUUUCUCUGGAUGAAGAACAGGAAGACAUAAAAGAGAAAAAAUAUAUAUCCAUCAAGUUAGGUGUGGUGGCCACACCUUUACUCCCAGCACUUUGGGAGGUGGAUCUCUGAGUCAACAGAGGAUUGAGCAUCA
B21: 57673579_57674608_1111_CDS_ENSMUSG00000062190_ENSMUST00000050077|mouse|control|control (ssRNA)
RNA: GGGAGUUCUACAGUCCGACGAUCGGGGCAGCGCUCAGAUUUCCUUUCUUCCCUUGAUAGACUCUUUCCCGACUCAAUAAUAGCACUGACUACCUCUUUAAUAGCUGUCUCACCAACAGUGCCAGGGCCAAUCUCUGUGUUCAGCAACAGAGGAUUGAGCAUCA
B22: 27831831_27832786_1487_CDS_ENSG00000106052_ENST00000265393|human|control|control (ssRNA)
RNA: GGGAGUUCUACAGUCCGACGAUCUUCCUUAAAUUUUUCUUUAUAAUGGUCUGCAGCCAUCUGAAGACGGAGUUUCAGAUCUUCAACUUCUCUUCUUAGUUCGUGUUCCAGUGUAUCAGUCUUGUCCUGAUCUUUUUUCAUAGCCAACAGAGGAUUGAGCAUCA

biological target: T1, UNK ZnF1-3; assay: nsRBNS (natural sequence RNA bind-n-seq); RBNS binding buffer (assumed for nsRBNS): 25 mM Tris pH 7.5, 150 mM KCl, 3 mM MgCl2, 0.01% Triton X-100, 500 ug/ml BSA, 20 U/ml SUPERase-In, 4 C; UNK is unkempt and MSI1 is Musashi-1; names of the RNAs are library labels; protein concentration not given here; high values mean tight binding

Binder	binding signal [enrichment R]
B1	2.31
B2	0.642
B3	0.96
B4	0.999
B5	1.04
B6	2.15
B7	0.878
B8	0.63
B9	0.49
B10	2.89
B11	1.06
B12	0.85
B13	1.39
B14	1.16
B15	1.1
B16	0.86
B17	0.65
B18	1
B19	0.806
B20	1.32
B21	0.957
B22	0.467
